Some of the results follow.

To fix the notation:
T1: UNK ZnF1-3 (human, UniProt Q9C0B0 31-174)
T1 sequence: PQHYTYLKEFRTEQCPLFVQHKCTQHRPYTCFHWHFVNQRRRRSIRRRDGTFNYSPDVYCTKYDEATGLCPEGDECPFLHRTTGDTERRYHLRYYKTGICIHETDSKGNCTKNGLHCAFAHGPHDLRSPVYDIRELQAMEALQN

B1: chr8:95500983:95500984:-_ENSG00000164944_ENST00000437199|hu_hu|hu_hu_hu_mus_True|38_68 (ssRNA)
RNA: GGGAGUUCUACAGUCCGACGAUCAGAACACAUCUAUCGAGUAAAGGACCGUACAUGACGGCCUCUAACCACUGCCUCACUAACAAACUUUCCUCUCUGAGCCUCCAUGCCGCUAUUUGUACUAGCCCAGGACGGUCCCAGGCCCAACAGAGGAUUGAGCAUCA
B2: chr1:66829163:66829164:+_ENSG00000184588_ENST00000423207|hu_mus|FALSE|FALSE (ssRNA)
RNA: GGGAGUUCUACAGUCCGACGAUCCACGUCAGCAGCAUGCAGGCUGUUGUGAUAUGCCACAUCAGAAUGGUAAUGGUCUUCUAAAGUCAUCAUGUAGGUUACAAAGGUGUCAGAUGAGAUUUUAAACGUCUUCAGAAGGUCUCUCAACAGAGGAUUGAGCAUCA
B3: chr6:41757443:41757444:+_ENSG00000214736_ENST00000398881|hu_mus|hu_hu_hu_mus_False|38_88 (ssRNA)
RNA: GGGAGUUCUACAGUCCGACGAUCGAACCGUGCAGAGGCAACAUCUCGGAAUUCUGCGGGGGAUGGGGGGGCAGUGGGGGGGGGUUCAGGCAAGGAGAAGAAAAGUGCUUCAGCUGCCACUCAGGUAGGAUCUUGUGGUCACAGCAACAGAGGAUUGAGCAUCA
B4: chr15:77794528:77794529:-_ENSMUSG00000016554_ENSMUST00000100484|mus_mus|FALSE|FALSE (ssRNA)
RNA: GGGAGUUCUACAGUCCGACGAUCGGUGGUGACGGUGUGAAAGAUGCGCUUGAUGCUCCGCAGGGGCUUCUCACUCCUUGUGGUGAUGCGGUCAAAGGCUUUGUCGUAGUACUCCAGGGCUCCGCAGCACUCGAUGUCUUGAGGCAACAGAGGAUUGAGCAUCA
B5: 38547764_38547884_4359_CDS_ENSG00000131747_ENST00000423485|human|control|control (ssRNA)
RNA: GGGAGUUCUACAGUCCGACGAUCUGCUGUCUUCUUCACUGUCACAUUCUUUUUAGGAACUGGGUUUGUAAUUUCAGUUUCAUCUGGGAAAUGUGUAGCAGGAGGGCUUGAAGACAGUGGUACACUGCCCUUAACAUCAUCAGCCAACAGAGGAUUGAGCAUCA
B6: chr12:35831226:35831227:+_ENSMUSG00000020590_ENSMUST00000048519|mus_hu|FALSE|FALSE (ssRNA)
RNA: GGGAGUUCUACAGUCCGACGAUCAUACCAGAAGACAUAAAGCCUCUUCAUGUAUAUAUUCAUAUAUGCAAUAAAUGCAUUAAAUGUAACUUUAUUAAACAUAGUACACUGUACUUGACUUAUGGUUAAAUAUUUUACACACAGCAACAGAGGAUUGAGCAUCA
B7: chr14:103803487:103803488:+_ENSG00000100664_ENST00000558506|hu_mus|hu_hu_hu_mus_True|88_88 (ssRNA)
RNA: GGGAGUUCUACAGUCCGACGAUCGAGUUUAUGAUGUGUGUCAAGCAUGCCUCGAUACCCACAGGCUUUACAAGAAUUACCUAUUGUUUGCUUCUUUGGAUUGACAUGCAGAUCUGUUUCAGGAUUCUCACACUCAGGACAGAGCAACAGAGGAUUGAGCAUCA
B8: chr2:163839828:163839829:+_ENSMUSG00000018326_ENSMUST00000018470|mus_hu|FALSE|FALSE (ssRNA)
RNA: GGGAGUUCUACAGUCCGACGAUCGGAGUUCGACACAGUGGUUUGUUUGUUGUCUCCAGAUGCCACUUCAGAAAGAUACCUAAAAUAAUCUCCUUUCAUUUUCAAGUAGAACACCUUACUUUCUGGUUGUGUAGCAUUGGGAAUCAACAGAGGAUUGAGCAUCA
B9: chr1:46159212:46159213:+_ENSG00000159596_ENST00000372025|hu_mus|hu_hu_hu_mus_True|48_58 (ssRNA)
RNA: GGGAGUUCUACAGUCCGACGAUCUCUGAUCCCUCCCAAGAAAGCUAGGAAACCGGCUCCAUAAGCCAUCUGAGUGAAAGCUAAUAUGGGAAUAUAAGACUUUGUUAUUACCAUGAGAAGUGGGGGAGCAGUAAAGGGGAUUAACAACAGAGGAUUGAGCAUCA
B10: chr3:9412954:9412955:+_ENSG00000134077_ENST00000452837|hu_mus|hu_hu_hu_mus_False|68_78 (ssRNA)
RNA: GGGAGUUCUACAGUCCGACGAUCGGUUGAUAUCUCUUCUUUGAUGGCUGGAUUUUCAUAAUAAUCUAAGAUAUGAGAAUCUGAAGUGCUGCUGGCAUGCUUUUUCUUACCAUCUUUCUCAUCUGCUUUGUCUCCUUGUCCACACAACAGAGGAUUGAGCAUCA
B11: chr1:39494564:39494565:+_ENSG00000168653_ENST00000372967|hu_hu|hu_hu_hu_mus_True|1_8 (ssRNA)
RNA: GGGAGUUCUACAGUCCGACGAUCAUGCAUUCGCCUCAUCGUUUUGUACCGAAGCAAGCACUCUUCGAAGUCAUCGAACUCUAUCUUGCACUCCUUUUUCGCCCGGGUCCCACCGAUCCCGUGUGCACAUUCUAUCCAUUCUUUCAACAGAGGAUUGAGCAUCA
B12: chr11:100452861:100452862:-_ENSMUSG00000014195_ENSMUST00000014339|mus_hu|motif|central (ssRNA)
RNA: GGGAGUUCUACAGUCCGACGAUCCCAUUCGUAGAAUGUCACUAGCCACAGACUGUGCUUCUGGAUAACGACCCAGCAUUGCGGAACAUUCUGCCUUGAGGAUUUUGAAGCGAUGGCAGGCAGGGGCAAAUUCUAGGGCACGGUCAACAGAGGAUUGAGCAUCA
B13: chr17:34054454:34054455:+_ENSMUSG00000051390_ENSMUST00000053429|mus_mus|FALSE|FALSE (ssRNA)
RNA: GGGAGUUCUACAGUCCGACGAUCAAAUGCAUCCUGGGAGGUAGAGGAGAAAUCAGUCGACUCCCGGGGGCUGAAGUAGUUGCUACUGCUGGGAGACUGAUUCUCACUGGCCCUGCUGGAGGUAUGGGAACGGACAGAGCCUACCAACAGAGGAUUGAGCAUCA
B14: chr3:176740097:176740098:-_ENSG00000177565_ENST00000430069|hu_mus|hu_hu_hu_mus_True|68_68 (ssRNA)
RNA: GGGAGUUCUACAGUCCGACGAUCUGUUUUGUAUACCACAAAAGGAGGCACUUUCAGUAUCUGCAAAAGGUAUUUAAUCCUAAAACAUACUCACCUAGAGGAUAACUCAGGAAAACAAUCUGUUACACUCUAAGACCUACUCCACAACAGAGGAUUGAGCAUCA

This assay concerns the target T1, UNK ZnF1-3. The assay can be described thus: nsRBNS (natural sequence RNA bind-n-seq); RBNS binding buffer (assumed for nsRBNS): 25 mM Tris pH 7.5, 150 mM KCl, 3 mM MgCl2, 0.01% Triton X-100, 500 ug/ml BSA, 20 U/ml SUPERase-In, 4 C; UNK is unkempt and MSI1 is Musashi-1; names of the RNAs are library labels; protein concentration not given here; high values mean tight binding.
Take B1: the binding signal is 1.1 enrichment R.
In turn, B2 displayed a binding signal of 0.752 enrichment R.
Regarding B3, the binding signal worked out at 2.58 enrichment R.
B4 had a binding signal of 0.906 enrichment R.
The figure for B5 is 0.596 enrichment R; for B6 it is 1.05 enrichment R; for B7 it is 1.19 enrichment R.
Consider B8, for which the binding signal turned out to be 0.43 enrichment R.
The figure for B9 is 1.36 enrichment R.
B10 gave a binding signal of 0.514 enrichment R.
B11 came in with a binding signal of 0.756 enrichment R.
With B12, the binding signal turned out to be 1.02 enrichment R.
Consider B13, for which the binding signal is 1.45 enrichment R.
Molecule B14 displayed a binding signal of 0.954 enrichment R.

These data come from publication PMC12136788.
